# Reference: PubChem BioAssay AID1030 (National Center for Advancing Translational Sciences (NCATS), 2008)
# About 16,000 (7.3%) of roughly 220,000 compounds were called active. This list was built around the results that the source calls inconclusive (neither active nor inactive); the mix of calls is not that of the screen. Calls follow the shape of the dose curve; as a rule, active = well fitted inhibition curve with a large enough effect (not every such curve was filed as active); inconclusive = small, poorly fitted or top-dose-only effect, or another doubt; inactive = no such curve, though single readings can be large or run the other way. Potencies of inconclusive entries are left out as doubtful fits.
# Biological target: Aldehyde dehydrogenase 1A1 (Homo sapiens) (UniProt P00352)
# UniProt P00352, sequence (P00352 whole entry, looked up): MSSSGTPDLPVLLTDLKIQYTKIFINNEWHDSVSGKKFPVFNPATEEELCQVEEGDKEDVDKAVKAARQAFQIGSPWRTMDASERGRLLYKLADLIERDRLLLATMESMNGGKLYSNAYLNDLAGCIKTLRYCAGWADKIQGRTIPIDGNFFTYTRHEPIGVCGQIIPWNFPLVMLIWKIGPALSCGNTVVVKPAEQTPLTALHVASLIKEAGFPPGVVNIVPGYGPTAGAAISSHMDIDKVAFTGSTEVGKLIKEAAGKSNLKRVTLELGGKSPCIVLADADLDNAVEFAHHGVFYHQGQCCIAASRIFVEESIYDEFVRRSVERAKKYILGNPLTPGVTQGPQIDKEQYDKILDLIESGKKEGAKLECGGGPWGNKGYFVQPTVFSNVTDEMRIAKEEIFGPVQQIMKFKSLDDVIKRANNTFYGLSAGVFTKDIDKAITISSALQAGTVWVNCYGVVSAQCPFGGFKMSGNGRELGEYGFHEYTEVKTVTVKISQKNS
# Assay: qHTS Assay for Inhibitors of Aldehyde Dehydrogenase 1 (ALDH1A1);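 as to activity, negative = inhibition: plate controls were no enzyme wells and a reference inhibitor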
# Settings: Purified ALDH1A1, NADH fluorescence, propionaldehyde substrate; series mostly up to 75.3 µM; activity, negative = inhibition: at the top concentration
# Potency is read from the fitted curve at half-maximal effect; tags tell the direction and shape of the fitted curve.
SMILES,"activity, negative = inhibition",Potency
COc1ccc(N2CCN(C(=O)CNC(=O)c3ccc(C(C)(C)C)cc3)CC2)cc1,inactive: -14.7%,–
Cc1cccc(C(=O)NNS(=O)(=O)c2ccccc2)c1O,–,"inconclusive [inhibitor, single point]"
O=C1NC2(CCCc3ccccc32)C(=O)N1Cc1nnc(-c2ccccc2Br)o1 (stereo not drawn),–,"inconclusive [inhibitor, single point]"
O=C(CSc1ncccn1)NC(=O)c1ccccc1,–,"inconclusive [inhibitor, single point]"
Cc1csc2ncc(C(=O)Nc3ccccc3F)c(=O)n12,–,"inconclusive [inhibitor, single point]"
CC(=O)N(CC(O)CN(C(C)=O)c1c(I)c(C(=O)NC[C@@H](O)CO)c(I)c(C(=O)NC[C@@H](O)CO)c1I)c1c(I)c(C(=O)NC[C@@H](O)CO)c(I)c(C(=O)NC[C@@H](O)CO)c1I,inactive: -7.43% [at 20.9 µM],–
O=c1c2ccccc2nnn1CSc1nc2ccccc2c(=O)n1Cc1ccco1,–,"inconclusive [inhibitor, single point]"
COC(=O)c1ccccc1NC(=S)N1CCN(c2ccccn2)CC1,inactive: 7.59%,–
O=C(N/N=C/c1coc2ccccc2c1=O)c1cccc([N+](=O)[O-])c1,–,active: 28.2 µM
FC(F)(F)c1ccc(-c2noc(-c3ccccc3)c2I)cc1,inactive: 2.42%,–
CCCCn1c(/N=C/c2c[nH]c3ccccc23)nc2ccccc21,–,active: 25.1 µM
Cc1noc(C)c1CSc1nc2ccccc2nc1NS(=O)(=O)c1ccc(Cl)cc1,–,"inconclusive [inhibitor, partial curve]"
CC(C)N1CCN(Cc2cccc3nonc23)CC1CCO (stereo not drawn),–,"inconclusive [inhibitor, single point]"
CN(C)c1ccc(/C=N/NC(=O)CCC(=O)NCc2ccccc2)cc1,–,"inconclusive [inhibitor, partial curve]"
CCOc1ccc2nc(NC(=O)CSc3nnc(-c4ccncc4)n3CC3CCCO3)sc2c1 (stereo not drawn),–,"inconclusive [inhibitor, single point]"
N#Cc1c(-c2ccc(Cl)cc2)c2c([nH]c1=S)CCCC2,inactive: 18.4%,–
O=C(Nc1cccc(Cl)c1)Nc1nnc(CC2=CCCCC2)s1,inactive: 6.17%,–
Cc1ccc(-n2c(SCC(=O)N3c4ccccc4Sc4ccccc43)nnc2-c2ccncc2)cc1,–,"inconclusive [inhibitor, single point]"
Cc1c(C(=O)N2CCOCC2)sc(NC(=O)c2ccc3c(c2)OCO3)c1C#N,inactive: -6.91%,–
O=C(Nc1nc(=S)ss1)c1c(F)cccc1F,–,active: 22.4 µM
O=C(CN1CCN(C(=O)c2ccco2)CC1)Nc1c2c(nc3c1CCC3)CCCC2,–,"inconclusive [inhibitor, single point]"
CC(C)Oc1cccc(C(=O)C2CCCN(Cc3cnc(N4CCOCC4)s3)C2)c1 (stereo not drawn),–,"inconclusive [inhibitor, single point]"
Cc1cc(C(=O)NCCC2=CCCCC2)c(C)o1,–,active: 11.2 µM
OC[C@@H]1[C@@H](c2ccc(F)cc2)C(c2ccc(F)cc2)=NN1c1ccccc1,–,"inconclusive [inhibitor, partial curve]"

SMILES,"activity, negative = inhibition",Potency
Cc1cccc(CSC2=NN3CCCC(=O)N=C3S2)c1,–,"inconclusive [inhibitor, single point]"
COc1ccc(OCCN(C)Cc2ccccc2)cc1,inactive: 4.53%,–
Cc1cc(CNC(=O)CC2C(=O)NCCN2CC(c2ccccc2)c2ccccc2)on1 (stereo not drawn),–,"inconclusive [inhibitor, single point]"
CCOc1ccc(S(=O)(=O)N(C)c2ccc(OCC(=O)NCc3ccco3)cc2)cc1,–,"inconclusive [inhibitor, partial curve]"
O=C(N/N=C/c1ccccn1)C12CC3CC(CC(C3)C1)C2,–,"inconclusive [inhibitor, partial curve]"
COc1cc(C(O)CO)ccc1OS(=O)(=O)O (stereo not drawn),inactive: 1.71%,–
CCC(C)(C)NC(=O)CN(Cc1ccccc1Cl)C(=O)CCC(=O)Nc1cc(C)ccn1,–,active: 14.1 µM
Cc1cccc(NC(=O)CNc2cc(C)ccc2C)c1,–,"inconclusive [inhibitor, single point]"
Cc1ccc(S(=O)(=O)CCC(=O)OCc2ccc(S(=O)(=O)C(C)C)cc2)cc1,–,active: 2.51 µM
C#CCCCO/N=C1/[C@H]2O[C@@H]2[C@@H](O)[C@H]2[C@H]1CCn1c(=O)n(-c3ccccc3)c(=O)n12,inactive: 13.1% [at 13.5 µM],–
O=c1c2ccccc2nc2c3ccccc3c(NCc3cccnc3)nn12,–,"inconclusive [inhibitor, partial curve]"
COc1ccc(C2C=C(c3ccc(Br)s3)Nc3ncnn32)cc1OC (stereo not drawn),–,"inconclusive [inhibitor, single point]"
O=C(Nc1ccc(Sc2ccc(Br)cc2)cc1)c1ccco1,inactive: 2.02%,–
O=C(CCl)N(c1ccccc1)C1CCS(=O)(=O)C1 (stereo not drawn),–,active: 0.0631 µM
O=c1c2c(-c3ccccc3)csc2nc2n1CCC2,–,"inconclusive [inhibitor, single point]"
Clc1cccc(N2CCN(CCNc3nc4ccccc4n4cnnc34)CC2)c1,inactive: -7.35%,–
O=[N+]([O-])c1cccc(Cl)c1CSc1ccccn1,–,active: 20 µM
CCOC(=O)c1ccc(NC(=O)N2CCN(Cc3ccccc3)CC2)cc1,inactive: -12.3%,–
O=C(CCC1N=C2c3ccccc3N=C(SCc3ccccc3Cl)N2C1=O)NCc1ccco1 (stereo not drawn),–,"inconclusive [inhibitor, partial curve]"
CCOC(=O)C1CCN(C(=O)Nc2ccc(Cl)cc2Cl)CC1,inactive: 10.4%,–
Cc1ccc(NC(=S)Nc2ccc3cn[nH]c3c2)c(C)c1,–,"inconclusive [inhibitor, single point]"
CCn1nnnc1SCC(=O)Nc1ccc(OCc2ccccc2)cc1,–,"inconclusive [inhibitor, single point]"
COC(=O)C(CC(=O)Nc1cc(C)ccc1C)Nc1ccccc1OC (stereo not drawn),inactive: 4.82%,–
COc1ccc2sc3ccccc3c(=O)c2c1OC,inactive: -4.31%,–
